In all, about 220,000 compounds went through this assay and about 2,300 (1%) were called active. The inconclusive results got no clear call from the source; some entries with a clear call stand among them for comparison. Calls come from the whole dose curve; as a rule, active = well fitted inhibition curve with a large enough effect; inconclusive = small, poorly fitted or top-dose-only effect, or effect the other way; inactive = no such curve, though single readings can be large or run the other way. Potencies of inconclusive entries are left out as doubtful fits.
biological target: Neuropeptide S receptor (Homo sapiens) (UniProt Q6W5P4); test: qHTS Assay for Antagonists of the Neuropeptide S Receptor: cAMP Signal Transduction; details: CHO-NPSR cells, cAMP TR-FRET, antagonist mode; activity change, negative = inhibition: at 38.3 µM (top of the series) unless noted; note: nearly all actives have a fitted effect of over 50% in size
% is set by controls: 0 for no effect and ±100 for the full control effect; potency is the fitted concentration of half-maximal effect; tags give direction and shape of the fitted curve.

Sequence of UniProt Q6W5P4 (Q6W5P4 whole entry, looked up): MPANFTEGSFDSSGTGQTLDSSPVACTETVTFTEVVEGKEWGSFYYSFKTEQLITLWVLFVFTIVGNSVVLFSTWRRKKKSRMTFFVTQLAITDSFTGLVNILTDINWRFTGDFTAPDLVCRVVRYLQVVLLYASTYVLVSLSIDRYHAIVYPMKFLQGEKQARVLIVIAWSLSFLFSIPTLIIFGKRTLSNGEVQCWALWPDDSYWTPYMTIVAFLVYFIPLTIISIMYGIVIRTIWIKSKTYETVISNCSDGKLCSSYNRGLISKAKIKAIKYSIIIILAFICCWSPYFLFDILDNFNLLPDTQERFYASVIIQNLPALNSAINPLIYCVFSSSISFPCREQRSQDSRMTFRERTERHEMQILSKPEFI

| Compound | Potency | activity change, negative = inhibition |
| --- | --- | --- |
| CCCN(CCC)S(=O)(=O)c1ccc(NC(=O)COc2ccccc2)cc1 | inconclusive [inhibitor, single point] |  |
| CCO[C@@H]1OC(C(=O)NCc2nc3ccccc3[nH]2)=C[C@H](c2csc3ccccc23)[C@H]1CCCO | inconclusive [activator, single point] |  |
| COc1ccc(NC(=O)c2oc3ccccc3c2NC(=O)C(C)(C)C)cc1 | inconclusive [inhibitor, single point] |  |
| CCOc1ccccc1C(=O)Nc1cc(Cl)ccc1O |  | inactive: -26.8% [at 46.1 µM] |
| CCN(CC)S(=O)(=O)c1ccc(Nc2nc3ccccc3n3nnnc23)cc1 | inconclusive [inhibitor, partial curve] |  |
| S=C(NCc1ccco1)Nc1ccc(Cl)cc1Cl |  | inactive: 5.88% |
| N#C/C(=N\Nc1ccc(Cl)cc1)C(=O)c1ccsc1 | inconclusive [activator, single point] |  |
| COc1ccc(OC)c(C2=Nn3c(nnc3-c3cc(OC)c(OC)c(OC)c3)SC2)c1 | inconclusive [inhibitor, partial curve] |  |
| COc1ccc2[nH]c(=O)c(CN(Cc3ccco3)Cc3nnnn3Cc3ccccc3)cc2c1 | inconclusive [inhibitor, single point] |  |
| O=C(NNC1=NCCCCC1)c1ccccc1 |  | inactive: 0.258% [at 46.1 µM] |
| CCN(Cc1ccccc1)C(=O)c1cc2c(=O)oc3ccc(C)cc3c2s1 | inconclusive [inhibitor, partial curve, poor fit] |  |
| CCOC(=O)c1c(-c2ccc(OC)cc2)csc1NC(=O)CNCc1ccco1 | inconclusive [inhibitor, partial curve, poor fit] |  |
| COc1cccc(CNc2ccc(N3CCCCC3)cc2)c1OC | inconclusive [inhibitor, single point] |  |
| CCNc1nc(NCC)nc(OCCOC(=O)Nc2ccccc2)n1 |  | inactive: 15.4% |
| Nc1nc(SCC(=O)NCc2ccccc2)n[nH]1 |  | inactive: 10.8% [at 7.67 µM] |
| CC(C)(C)N1CC(c2nc3ccccc3n2CCOc2ccccc2)CC1=O (configuration not stated) |  | inactive: -4.81% [at 46.1 µM] |
| Cc1ccc(C)c(S(=O)(=O)ON2C(=O)c3ccccc3C2=O)c1 |  | inactive: -19.7% [at 46.1 µM] |
| COc1ccc(-c2ccc([C@H]3[C@H]4C=CC[C@@H](C)[C@@H]4C(=O)N3Cc3ccccc3)c(F)c2)cc1OC | inconclusive [inhibitor, single point] |  |
| CCOC(=O)c1sc(-c2ccccc2)cc1NC(=O)c1ccc(S(=O)(=O)N(CCOC)CCOC)cc1 | inconclusive [inhibitor, single point] |  |
| Cc1nnc(SCCC(=O)Nc2nc(-c3ccccc3)ns2)s1 | inconclusive [inhibitor, full curve, poor fit] |  |
| CC(=O)Nc1ccc2nc(NC(=O)c3ccc([N+](=O)[O-])s3)sc2c1 |  | inactive: 25.3% |
| C/C(=N\Nc1cccc(C(=O)O)c1)c1cc2ccccc2o1 |  | inactive: -14.2% |
| CCOC(=O)c1ccc(N2C(=O)CC(N3CCC(C(N)=O)(N4CCCCC4)CC3)C2=O)cc1 (configuration not stated) |  | inactive: 12.8% [at 46.1 µM] |
| CC(C)Nc1nc(NNc2nc(Cl)nc(NC(C)(C)C)n2)nc(NC(C)C)n1 |  | inactive: -0.0368% [at 7.67 µM] |

| Compound | Potency | activity change, negative = inhibition |
| --- | --- | --- |
| O=C(N/N=C/c1ccc(Cl)cc1Cl)c1n[nH]c2c1CCCC2 |  | inactive: -11.1% |
| O=C(/C(=C/O)N=Nc1ccc(Cl)cc1)c1ccncc1 | inconclusive [inhibitor, single point] |  |
| Cc1cccc2c1[nH]c1nc(N/N=C\c3ccco3)nnc12 | inconclusive [inhibitor, partial curve, poor fit] |  |
| COc1ccc(/C=C/C(=O)c2ccc(OC)cc2OC)cc1 |  | inactive: -5.44% |
| O=S(=O)(NC1CC2CCC1C2)c1ccc(Br)s1 (configuration not stated) | inconclusive [inhibitor, single point] |  |
| CC(=O)Nc1cccc(NC(=O)c2sc3ncn(CC(=O)N4CCCCC4)c(=O)c3c2C)c1 |  | inactive: -15% [at 46.1 µM] |
| CCc1nc(OCc2ccco2)c2sc3nc4c(cc3c2n1)COC(C)(C)C4 | inconclusive [inhibitor, single point] |  |
| Cc1cccc(OCC(O)Cn2c(=N)n(Cc3ccccc3)c3ccccc32)c1 (configuration not stated) | inconclusive [activator, partial curve] |  |
| CCN(CC)c1ccc(S(=O)(=O)N2CCOCC2)cc1NC(=O)CSc1n[nH]c(N)n1 |  | inactive: -5.04% |
| CCNC(=S)N1N=C2c3ccccc3CCC2C1c1ccc(F)cc1 (configuration not stated) | inconclusive [activator, partial curve] |  |
| O=C(C1CCCN(S(=O)(=O)c2ccc(Br)s2)C1)N1CCCCCC1 (configuration not stated) | inconclusive [inhibitor, single point] |  |
| Cc1cc(N2CCCCC2)nc(SCc2ccc(C#N)cc2)n1 | inconclusive [inhibitor, partial curve] |  |
| CC(NS(=O)(=O)c1cccc(Cl)c1)C(=O)Nc1ccc(-c2nc3ccccc3s2)cc1 (configuration not stated) | inconclusive [inhibitor, single point] |  |
| Nn1cnnc1SCC(=O)Nc1ccc(C2CCCCC2)cc1 |  | inactive: -13.8% [at 46.1 µM] |
| C(/C=C/c1ccco1)=N/N1CCN(c2ccccc2)CC1 |  | inactive: -11.3% [at 46.1 µM] |
| COc1ccc(N=C2SC(C(=O)Nc3ccc4c(c3)OCO4)CC(=O)N2C)cc1 (configuration not stated) | inconclusive [inhibitor, full curve] |  |
| COC(=O)C(N)Cc1ccc(Cl)cc1 (configuration not stated) | inconclusive [inhibitor, single point] |  |
| Cc1cccn2c(=O)c3cc(C#N)c(=NC(=O)c4ccncc4)n(CCCOC(C)C)c3nc12 | inconclusive [inhibitor, partial curve] |  |
| CCCCCNC(=O)c1ccc2c(=O)[nH]c3c(C(=O)NCC4CCCO4)sc(=S)n3c2c1 (configuration not stated) |  | inactive: -9.55% [at 46.1 µM] |
| Cc1cccc(NC(=O)c2cc([N+](=O)[O-])ccc2N2CCCCC2)n1 | active: 10 µM |  |
| CCN1C(=O)c2cccc3c(NC(=O)c4ccccc4)ccc1c23 | inconclusive [inhibitor, single point] |  |
| O=C(NC(=S)Nc1ccccc1N1CCCC1)c1ccc(F)cc1 | inconclusive [inhibitor, single point] |  |
| CCc1cc2cc(C(=O)Nc3ccc(C)cc3)sc2s1 | inconclusive [inhibitor, single point] |  |
| C=C(C)COc1ccc(-c2n[nH]c(C)c2Oc2ccccc2OC)c(O)c1 | inconclusive [inhibitor, single point] |  |

| Compound | Potency | activity change, negative = inhibition |
| --- | --- | --- |
| CSc1ccc(/C=C/c2ccc3cccc(O)c3n2)cc1 |  | inactive: 8.38% |
| O=C(O)c1cccc(-c2ccc(/C=N/n3cnc4sc5c(c4c3=O)CCCC5)o2)c1 |  | inactive: 7.04% |
| O=C(Nc1ccc2oc(-c3ccncc3)nc2c1)c1c(F)c(F)c(F)c(F)c1F | inconclusive [inhibitor, single point] |  |
| CCNC(=S)NNc1ccccc1 |  | inactive: -22.1% |
| O=[N+]([O-])c1ccc(CN2CCOCCOCCN(Cc3ccc([N+](=O)[O-])cc3)CCOCC2)cc1 |  | inactive: -9.21% |
| O=C(N/C(=N\O)c1ccccc1)Nc1ccc(Cl)cc1 | inconclusive [activator, single point] |  |
| Cc1cccc(OCCn2c(-c3ccco3)nc3ccccc32)c1 | inconclusive [inhibitor, partial curve, poor fit] |  |
| COc1cccc(NC(=O)C2CC(=O)N(C)C(=Nc3cccc(F)c3)S2)c1 (configuration not stated) | inconclusive [inhibitor, full curve] |  |
| O=C(Cc1ccccc1)N1CCN(c2ncccn2)CC1 |  | inactive: 21.8% |
| O=c1oc(-c2ccco2)nc2c1cnn2-c1ccccc1 | inconclusive [inhibitor, partial curve] |  |
| Cc1onc(-c2ccccc2Cl)c1C(=O)NC(=S)NCC(=O)c1ccccc1 | inconclusive [inhibitor, single point] |  |
| CCCCC(=O)N/N=C/c1ccc(Sc2cccc3cccnc23)o1 | inconclusive [inhibitor, single point] |  |
| CNc1c(C(=O)O)ccc2c1C(=O)c1ccccc1C2=O |  | inactive: -36.1% |
| Cc1ccc(-c2nn(CC(=O)NC(C)c3ccccc3)c(=O)c3ccccc23)cc1 (configuration not stated) | inconclusive [inhibitor, single point] |  |
| Nc1nonc1-c1nc2ccccc2[nH]1 | inconclusive [activator, partial curve] |  |
| Cc1onc(-c2ccc(Cl)cc2Cl)c1-c1csc(COc2ccccc2)n1 | inconclusive [activator, single point] |  |
| CC1(C)Cc2cccc(OCC(=O)Nc3ccccc3N3CCOCC3)c2O1 | inconclusive [inhibitor, single point] |  |
| N/C(=N\NS(=O)(=O)c1ccccc1C(F)(F)F)c1ccccn1 |  | inactive: -23% |
| CCOc1cc(NC(=S)NCC2CCCO2)c(OCC)cc1NC(=O)c1ccccc1 (configuration not stated) | inconclusive [inhibitor, partial curve] |  |
| CC(NC(=O)NC12CC3CC(CC(C3)C1)C2)c1ccc2c(c1)OCO2 (configuration not stated) | inconclusive [inhibitor, single point] |  |
| COc1ccc(C2CC(O)(c3ccccc3)Oc3c(C)ccc(C)c32)cc1 (configuration not stated) | inconclusive [inhibitor, single point] |  |
| CC1(C)CC2CC(C)(CN2c2ncnc3ccc(Br)cc23)C1 (configuration not stated) | inconclusive [inhibitor, single point] |  |
| CC(C)C(CC(=O)NCc1ccco1)c1ccco1 (configuration not stated) |  | inactive: -3.14% [at 46.1 µM] |
| O=c1oc2ccccc2c2c1C(c1ccc(Cl)cc1)Nc1ccc3ccccc3c1-2 (configuration not stated) | inconclusive [inhibitor, single point] |  |

Reference: PubChem BioAssay AID1461 (National Center for Advancing Translational Sciences (NCATS), 2008)
